Reference: PMC4336329 (PLoS ONE, 2015)
About 14,000 (4.5%) of roughly 310,000 compounds showed an effect of 50% or more. Effects have a minus sign here. This is one part of the list.

The molecules below were run against human ether-à-go-go-related gene (hERG) potassium channel (human, UniProt Q12809) (assay: primary screen, population patch clamp on CHO cells stably expressing hERG).
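Also: peak tail current of the secondary pulse compared with the same well before compound.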

Chain of human ether-à-go-go-related gene (hERG) potassium channel (Q12809 whole entry, looked up): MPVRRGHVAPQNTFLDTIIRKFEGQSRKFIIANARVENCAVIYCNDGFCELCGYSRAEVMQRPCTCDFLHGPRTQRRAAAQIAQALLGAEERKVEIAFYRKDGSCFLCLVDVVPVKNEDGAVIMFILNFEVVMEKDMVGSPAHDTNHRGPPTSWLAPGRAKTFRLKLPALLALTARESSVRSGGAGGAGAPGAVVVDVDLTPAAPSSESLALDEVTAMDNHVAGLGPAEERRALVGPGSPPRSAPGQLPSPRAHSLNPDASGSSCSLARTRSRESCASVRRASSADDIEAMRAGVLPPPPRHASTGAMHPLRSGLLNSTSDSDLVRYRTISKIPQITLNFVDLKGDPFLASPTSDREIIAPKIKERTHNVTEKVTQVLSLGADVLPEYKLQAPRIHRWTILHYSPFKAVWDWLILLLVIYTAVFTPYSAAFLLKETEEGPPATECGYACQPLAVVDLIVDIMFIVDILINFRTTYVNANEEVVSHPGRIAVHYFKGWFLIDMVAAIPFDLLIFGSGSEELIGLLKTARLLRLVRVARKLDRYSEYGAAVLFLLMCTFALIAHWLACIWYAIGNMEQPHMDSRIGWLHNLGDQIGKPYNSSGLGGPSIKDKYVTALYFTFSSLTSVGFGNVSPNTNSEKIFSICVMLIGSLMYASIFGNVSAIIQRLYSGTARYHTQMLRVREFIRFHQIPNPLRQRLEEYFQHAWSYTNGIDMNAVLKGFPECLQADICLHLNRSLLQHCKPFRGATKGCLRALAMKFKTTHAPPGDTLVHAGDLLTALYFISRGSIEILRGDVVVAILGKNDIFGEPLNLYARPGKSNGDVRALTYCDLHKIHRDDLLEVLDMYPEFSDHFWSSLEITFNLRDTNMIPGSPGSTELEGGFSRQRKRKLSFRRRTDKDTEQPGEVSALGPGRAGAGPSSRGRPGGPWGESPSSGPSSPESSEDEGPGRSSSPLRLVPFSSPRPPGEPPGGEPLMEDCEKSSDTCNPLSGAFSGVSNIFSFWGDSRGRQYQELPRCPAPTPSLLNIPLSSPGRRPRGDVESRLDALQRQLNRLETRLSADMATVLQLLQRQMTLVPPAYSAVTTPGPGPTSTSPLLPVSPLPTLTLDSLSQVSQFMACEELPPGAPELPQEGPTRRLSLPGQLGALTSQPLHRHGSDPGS

Structure (SMILES) | hERG current change (%, negative = inhibition) at 10uM
COc1ccccc1CC(NC(C)=O)C(=O)NC1CCN(C(=O)c2cccc(Cl)c2)CC1 (stereo not drawn) | 15.5%
O=C(N/N=C/c1ccc(O)cc1)c1csc2ccccc12 | -26.5%
Cc1cc(C)cc(OCC(=O)OCC(=O)NC2CCCCCCC2)c1 | -10%
COc1ccc(CNC(=O)c2c[nH]c3c(OC)cc(OC)cc3c2=O)cc1 | 13.3%
Fc1cc2ncn(Cc3ccccc3)c2cc1F | -3.73%
COc1ccc(N2CC(C(=O)Nc3nnc(SCC(=O)N4CCOCC4)s3)CC2=O)cc1 (stereo not drawn) | 13.3%
CCCOP(=O)(OCCC)C1(Nc2ccc(C)cc2)CCCCC1 | -5.07%
COc1ccc(S(=O)(=O)N(CC(=O)NN=C2CCN(C)CC2)c2ccc(C)cc2)cc1OC | 10.1%
Cc1ccc(OCC(O)Cn2c(=N)n(CCN3CCCCC3)c3ccccc32)cc1.Cl (stereo not drawn) | -72.9%
O=C(COc1ccc(S(=O)(=O)N2CCCC2)cc1)NCC1CCCO1 (stereo not drawn) | 16.7%
O=C1CC(NNc2ccccc2)C(=O)N1c1cccc(Cl)c1 (stereo not drawn) | 17.8%
CCOC(=O)C(C(=O)OCC)C(C[N+](=O)[O-])c1ccccc1 (stereo not drawn) | 27.1%
Cc1ccc2c(c1)sc(=NC(=O)C1CC1)n2C | -4.01%
CCCCn1c(SCc2nc3ccccc3s2)nc2ccccc2c1=O | -54.7%
CCCC(C)C(=O)Nc1nc(C)c(-c2csc(Nc3ccccc3OC)n2)s1 (stereo not drawn) | 14.5%
Cc1cc(NC(=O)CCSc2ccccc2)no1 | 14.1%
COn1c(SC(C)C)nc2ccccc2c1=O | -6.14%
O=C(NC1CC(=O)N(c2cccc(F)c2)C1)N1CCN(C(=O)c2ccco2)CC1 (stereo not drawn) | -26.1%
Cc1ccc(S(=O)(=O)N/N=C/c2cc(Br)c(C)o2)cc1 | 4.02%
Cc1ccc(CNS(=O)(=O)c2cc3c4c(c2)C(C)C(=O)N4CCC3)cc1 (stereo not drawn) | -20.3%
CCCCCCCCCC(=O)N/N=C(\C)c1cccnc1 | 9.29%
CN(C(=S)NC(=O)C1CC1)c1ccc(O)cc1 | -16.5%
O=C(NCCN1CCOCC1)c1c(F)c(F)c(F)c(F)c1F | 15.8%

Structure (SMILES) | hERG current change (%, negative = inhibition) at 10uM
COc1ccccc1CNC(=O)C1CCCC1 | 21.6%
c1ccc(CCNCCCOc2cccc3ccccc23)cc1 | -26.5%
CS(=O)(=O)Nc1ccc(-c2cc(/C=C3\SC(N)=NC3=O)c[nH]c2=O)cc1 | 11.9%
Cc1ccc(NC(=O)CCn2c(=O)[nH]c3ccsc3c2=O)cc1F | -1.38%
CC1CCCC(C)N1C(=O)COC(=O)C12CC3CC(CC(Cl)(C3)C1)C2 (stereo not drawn) | -18.2%
Cc1ccccc1C(=O)Nc1ccccc1Sc1ccccc1 | 3.32%
Cc1nc(-c2ccc(C#N)cc2)cs1 | -0.948%
Cc1c(C(=O)NCC2CCCO2)oc2ccc(S(=O)(=O)N3CCCCC3)cc12 (stereo not drawn) | 1.19%
CCOc1ccc(OCCn2c(S(=O)(=O)O)nc3c(N)ncnc32)cc1 | 12.9%
COc1ccc(NC(=O)c2ccc(N3CCOCC3)nc2)cc1 | 3.94%
O=C(CN1C(=O)S/C(=C\C=C\c2ccccc2)C1=O)NC1CCS(=O)(=O)C1 (stereo not drawn) | -1.57%
CC(Sc1ncnc2sc(-c3ccccc3)cc12)C(=O)NCC1CCCO1 (stereo not drawn) | -33.1%
COc1ccc(N2CCN(C(=O)COC(=O)c3c(-c4ccccc4)noc3C)CC2)cc1 | -26.9%
COC(=O)c1sc2nc(CN3CCN(c4cccc(C(F)(F)F)c4)CC3)[nH]c(=O)c2c1C | 11.6%
CCOC(=O)c1c(/N=C/C2=C(O)CCCC2=O)sc2c1CCCC2 | 16%
CCc1nc(C)cn1S(=O)(=O)c1cc([N+](=O)[O-])ccc1Cl | 16.4%
CC1CCN(C(=S)c2ccc([N+](=O)[O-])cc2)CC1 | -18.1%
O=C(NC(=S)N1CCN(c2ccccc2)CC1)c1c(F)cccc1F | 47%
CN(CC(=O)Nc1ccc(N2CCOCC2)cc1)C(=O)CCc1cc(C(C)(C)C)c(O)c(C(C)(C)C)c1 | -31.1%
Cc1cc(C)cc(C(=O)O/N=C(\N)c2ccc(Br)cc2)c1 | 4.49%
O=C(CSc1nnc(-c2ccc(S(=O)(=O)N3CCCC3)cc2)o1)NCc1ccccc1 | 4.47%
CS(=O)(=O)c1ccc(C(=O)Nc2ccc(N3CCOCC3)cc2)c(Cl)c1 | 4.97%
CC(C)OCCCNc1ncnc2c1[nH]c1ccccc12 | -9.31%

Structure (SMILES) | hERG current change (%, negative = inhibition) at 10uM
COc1ccc(CNC(=O)c2cccc(C)c2[N+](=O)[O-])cc1 | 26.4%
O=C(C1CCCO1)N1CCN(C(=S)Nc2ccccc2C(F)(F)F)CC1 (stereo not drawn) | 1.49%
O=C1CN(CC(=O)Nc2ccc(Cl)cc2)CCN1 | -4.87%
Cn1ccnc1Sc1ccc(/C=N/NC(=O)c2ccccc2[N+](=O)[O-])cc1[N+](=O)[O-] | -36.7%
CSCCC(NC(=O)c1ccccc1Cl)C(=O)N1CCN(C(c2ccccc2)c2ccccc2)CC1 (stereo not drawn) | -1.92%
COc1ccc(CCNC(=O)CSc2ccc3nnc(CCNC(=O)c4ccccc4)n3n2)cc1OC | 6.1%
O=[N+]([O-])c1cccc(-c2cc3cccc[n+]3cc2-c2cccc([N+](=O)[O-])c2)c1.[Cl-] | -24.8%
COc1ccc(Cl)cc1C(=O)Nc1ccccc1N1CCN(C(=O)C(C)C)CC1 | -74%
Cn1cnc2c1c(=O)n(Cc1cccc(Cl)c1)c(=O)n2C | 10.2%
COc1ccc(S(=O)(=O)N2CCC(C(=O)Nc3cccc(Cl)c3)CC2)cc1OC | -18.9%
COc1cccc(-c2nc(N3CCCCC3C)c3ccccc3n2)c1O (stereo not drawn) | 17.8%
COc1ccccc1OCCCCCNCCO | 2.82%
CCOc1ccc(CN2CCN(Cc3cnc(N4CCOCC4)s3)CC2CCO)cc1 (stereo not drawn) | -39.8%
CCC1CCCCN1C(=O)CSc1nc2c(cnn2-c2ccc(C)cc2)c(=O)[nH]1 (stereo not drawn) | 20.1%
Cc1cc(Nc2ccc(F)cc2Cl)n2ncnc2n1 | -3.01%
C=C(C)c1cccc(C(C)(C)NC(=O)N2CCN(C/C=C/c3ccccc3)CC2)c1 | -62.9%
COc1ccccc1NS(=O)(=O)c1ccc(C(N)=O)cc1 | 9.94%
O=C(CSc1ccc(-c2ccc(F)cc2)nn1)N1CCCCC1 | -21%
O=C1N=C2SCCN2/C1=C\c1ccc(Cl)cc1 | -15.5%
Cc1ccc(-c2cc(Cc3cccs3)c(=O)[nH]n2)cc1 | 15.4%
Cc1cccc(NC(=S)NCc2ccc(F)cc2)c1 | 12.1%
COc1ccc(N(CC(=O)NC2CCCCC2)C(=O)CCCC(=O)Nc2ccccn2)cc1 | -65.9%
C1CCCN(CCCCN2CCCCCC2)CC1.Cl | -2.21%

Structure (SMILES) | hERG current change (%, negative = inhibition) at 10uM
COc1cc2c(cc1OC)CN(C(=O)COc1ccccc1C#N)CC2 | 15.4%
COc1cccc(C2(c3cccc(OC)c3)CC2C(=O)Nc2ccc(F)cc2)c1 (stereo not drawn) | 6.06%
CCC1CSC(Nc2ccc(C(=O)/C=C/c3cccc(C)c3)cc2)=N1 (stereo not drawn) | 14.4%
CCCCCCCCOc1ccc(C(=O)O)cc1 | 13.3%
COc1ccc(C(=O)CSc2nnc3ccccn23)cc1OC | 17.1%
O=C(c1cccs1)N1CCN(c2nc3ccc([N+](=O)[O-])cc3s2)CC1 | -7.47%
CCOc1ccccc1N1CC(C(=O)N2CCc3ccccc32)CC1=O (stereo not drawn) | -5.81%
CCOC(=O)C1C(=O)N(C)C2(C)CC1c1ccccc1O2 (stereo not drawn) | 11.5%
O=C1C(O)=C(O)C(=O)c2ccccc21 | 0.0396%
CC1(C)OC(=O)C2(Cc3ccccc3N3CCCCC32)C(=O)O1 (stereo not drawn) | -8.47%
O=C(NCCC1CCCCN1S(=O)(=O)c1ccc(F)cc1)C(=O)NCc1ccccn1 (stereo not drawn) | -11.9%
Nc1c(C(=O)c2ccccc2)oc2ccc([N+](=O)[O-])cc12 | -0.269%
CCN(CC)Cc1cc(C(C)=O)ccc1OCC(C)C | -31.5%
Cc1ccc(NC(=O)c2cc(CC(C)C)nc3ccccc23)cc1 | 11%
CCOC(=O)c1c(NC(=O)C2CC=CCC2C(=O)O)sc(C)c1CC (stereo not drawn) | 2.37%
CC(C)NC(=O)c1ccccc1NC(=O)CN(c1ccc2c(c1)OCO2)S(C)(=O)=O | 1.97%
Cc1noc(C)c1COc1ccc(C(=O)OCC(=O)N2CC(=O)Nc3ccccc32)cc1 | 4.54%
O=C(Cn1ncc2c3ccccc3n(Cc3ccccc3F)c2c1=O)NC1CC1 | 10.5%
Cc1ccccc1NC(=O)N1CCC(C(=O)c2ccc(F)cc2)CC1 | -16.3%
CN(C)C=O.O=C1CN(C(=O)CN2C(=O)NC3(CCCCC3)C2=O)c2ccccc2N1 | 35.7%
COC(=O)[C@H]1C[C@@H]1[C@H](NC(=O)c1cccnc1)c1ccccc1 | 3.74%
